This is one part of the list.
Legend:
HSkMC = human skeletal muscle cells; assay: cytotoxicity call (relative viability < 0.9); conditions: 10 µM
HepG2 = assay: cytotoxicity call (relative viability < 0.9); conditions: 10 µM
S. aureus RN4220 = assay: growth inhibition call (relative growth <= 0.2); conditions: 50 µM

SMILES: C[C@H]1CCCCO[C@H](CN(C)Cc2ccc(C(=O)O)cc2)[C@@H](C)CN([C@@H](C)CO)C(=O)c2cc(NC(=O)NC3CCCCC3)ccc2O1
- cytotoxicity call (HSkMC): inactive
- cytotoxicity call (HepG2): inactive
- growth inhibition call (S. aureus RN4220): inactive

SMILES: C[C@H]1CN([C@@H](C)CO)C(=O)CCCn2nncc2CO[C@@H]1CN(C)S(=O)(=O)c1ccc(Oc2ccccc2)nc1
- cytotoxicity call (HSkMC): inactive
- cytotoxicity call (HepG2): inactive
- growth inhibition call (S. aureus RN4220): inactive

SMILES: COc1cccc(NC(=O)N(C)C[C@@H]2Oc3ncc(C#Cc4cccnc4)cc3C(=O)N([C@@H](C)CO)C[C@H]2C)c1
- cytotoxicity call (HSkMC): inactive
- cytotoxicity call (HepG2): inactive
- growth inhibition call (S. aureus RN4220): inactive

SMILES: O=C(C[C@H]1CC[C@H]2[C@@H](COC[C@@H](O)CN2C(=O)c2ccc(F)cc2)O1)NCCCN1CCOCC1
- cytotoxicity call (HSkMC): inactive
- cytotoxicity call (HepG2): inactive
- growth inhibition call (S. aureus RN4220): inactive

SMILES: C[C@@H]1CN([C@@H](C)CO)C(=O)Cc2cc(NS(C)(=O)=O)ccc2O[C@@H]1CN(C)C(=O)Nc1ccccc1
- cytotoxicity call (HSkMC): inactive
- cytotoxicity call (HepG2): inactive
- growth inhibition call (S. aureus RN4220): inactive

SMILES: COc1ccc(NC(=O)N2C[C@@H](O)COC[C@@H]3O[C@H](CC(=O)NC4Cc5ccccc5C4)CC[C@H]32)cc1
- cytotoxicity call (HSkMC): inactive
- cytotoxicity call (HepG2): inactive
- growth inhibition call (S. aureus RN4220): inactive

SMILES: COc1ccc(CN(C)C[C@H]2OCCCC[C@H](C)Oc3ccc(NS(=O)(=O)c4c(C)noc4C)cc3C(=O)N([C@H](C)CO)C[C@H]2C)cc1
- cytotoxicity call (HSkMC): inactive
- cytotoxicity call (HepG2): inactive
- growth inhibition call (S. aureus RN4220): inactive

SMILES: CC(C)c1ccccc1O
- cytotoxicity call (HSkMC): inactive
- cytotoxicity call (HepG2): inactive
- growth inhibition call (S. aureus RN4220): inactive

SMILES: C[C@H](CO)N1C[C@H](C)[C@H](CN(C)C(=O)Nc2ccc(C(F)(F)F)cc2)Oc2ncc(C3=CCCC3)cc2C1=O
- cytotoxicity call (HSkMC): inactive
- cytotoxicity call (HepG2): inactive
- growth inhibition call (S. aureus RN4220): inactive

SMILES: COc1ccc(NC(=O)Nc2ccc3c(c2)C(=O)N([C@H](C)CO)C[C@H](C)[C@H](CN(C)Cc2ccc(C(=O)Nc4ccccc4N)cc2)O3)cc1
- cytotoxicity call (HSkMC): inactive
- cytotoxicity call (HepG2): inactive
- growth inhibition call (S. aureus RN4220): inactive

SMILES: CN1CCN(C(=O)C[C@@H]2CC[C@@H](NC(=O)Cc3ccccn3)[C@@H](CO)O2)CC1
- cytotoxicity call (HSkMC): inactive
- cytotoxicity call (HepG2): inactive
- growth inhibition call (S. aureus RN4220): inactive

SMILES: COc1ccc(S(=O)(=O)N(C)C[C@@H]2OCCCC[C@H](C)Oc3ccc(NC(=O)Nc4ccc(F)cc4)cc3C(=O)N([C@@H](C)CO)C[C@@H]2C)cc1
- cytotoxicity call (HSkMC): inactive
- cytotoxicity call (HepG2): inactive
- growth inhibition call (S. aureus RN4220): inactive

SMILES: Cc1ccc(S(=O)(=O)Nc2ccc3c(c2)C(=O)N([C@@H](C)CO)C[C@H](C)[C@H](CN(C)Cc2ccc(Cl)c(Cl)c2)O3)cc1
- cytotoxicity call (HSkMC): inactive
- cytotoxicity call (HepG2): inactive
- growth inhibition call (S. aureus RN4220): inactive

SMILES: Cc1ccc(S(=O)(=O)N(C)C[C@@H]2Oc3c(NC(=O)Nc4ccc(C(F)(F)F)cc4)cccc3C(=O)N([C@@H](C)CO)C[C@H]2C)cc1
- cytotoxicity call (HSkMC): inactive
- cytotoxicity call (HepG2): inactive
- growth inhibition call (S. aureus RN4220): inactive

SMILES: Cc1ccc(C(=O)N(CCCN)[C@@H](c2nc3cc(Cl)ccc3c(=O)n2Cc2ccccc2)C(C)C)cc1
- cytotoxicity call (HSkMC): active
- cytotoxicity call (HepG2): active
- growth inhibition call (S. aureus RN4220): active

SMILES: C[C@@H]1CN([C@@H](C)CO)C(=O)c2cccc(NS(C)(=O)=O)c2O[C@@H]1CN(C)S(C)(=O)=O
- cytotoxicity call (HSkMC): inactive
- cytotoxicity call (HepG2): inactive
- growth inhibition call (S. aureus RN4220): inactive

SMILES: C[C@H](CO)N1C[C@H](C)[C@@H](CN(C)S(=O)(=O)c2ccccc2)Oc2ccc(NS(=O)(=O)c3cccs3)cc2CC1=O
- cytotoxicity call (HSkMC): inactive
- cytotoxicity call (HepG2): inactive
- growth inhibition call (S. aureus RN4220): inactive

SMILES: CC(C)(CO)[C@@H](O)C(=O)NCCCO
- cytotoxicity call (HSkMC): inactive
- cytotoxicity call (HepG2): inactive
- growth inhibition call (S. aureus RN4220): inactive

SMILES: C[C@@H]1CN([C@H](C)CO)S(=O)(=O)c2ccc(-c3cncnc3)cc2O[C@H]1CN(C)C(=O)c1cccc(F)c1
- cytotoxicity call (HSkMC): inactive
- cytotoxicity call (HepG2): inactive
- growth inhibition call (S. aureus RN4220): inactive

SMILES: COCC(=O)Nc1ccc2c(c1)C(=O)N(C)C[C@H](OC)[C@@H](C)CN(C(=O)c1ccccc1F)[C@@H](C)CO2
- cytotoxicity call (HSkMC): inactive
- cytotoxicity call (HepG2): inactive
- growth inhibition call (S. aureus RN4220): inactive

SMILES: COc1ccc(CN(C)C[C@H]2Oc3c(NS(=O)(=O)c4cn(C)cn4)cccc3C(=O)N([C@H](C)CO)C[C@H]2C)cc1
- cytotoxicity call (HSkMC): inactive
- cytotoxicity call (HepG2): inactive
- growth inhibition call (S. aureus RN4220): inactive

SMILES: Cc1noc(C)c1NC(=O)Nc1cccc2c1O[C@@H](CN(C)C(=O)Nc1cccc3ccccc13)[C@H](C)CN([C@H](C)CO)C2=O
- cytotoxicity call (HSkMC): inactive
- cytotoxicity call (HepG2): inactive
- growth inhibition call (S. aureus RN4220): inactive

SMILES: C[C@@H]1CN([C@H](C)CO)C(=O)c2cc(NC(=O)NC3CCCCC3)ccc2O[C@@H](C)CCCCO[C@@H]1CN(C)C(=O)Nc1ccccc1
- cytotoxicity call (HSkMC): inactive
- cytotoxicity call (HepG2): inactive
- growth inhibition call (S. aureus RN4220): inactive

SMILES: COc1ccc(CN(C)C[C@H]2OCCCC[C@@H](C)Oc3ccc(NC(=O)Nc4c(C)noc4C)cc3C(=O)N([C@H](C)CO)C[C@H]2C)cc1
- cytotoxicity call (HSkMC): inactive
- cytotoxicity call (HepG2): inactive
- growth inhibition call (S. aureus RN4220): inactive

SMILES: COc1ccc(S(=O)(=O)N(C)C[C@H]2OCCCC[C@@H](C)Oc3ccc(NC(=O)C4CCCCC4)cc3C(=O)N([C@@H](C)CO)C[C@H]2C)cc1
- cytotoxicity call (HSkMC): inactive
- cytotoxicity call (HepG2): inactive
- growth inhibition call (S. aureus RN4220): inactive

SMILES: COC(=O)c1cnn2c(=O)cc(C)[nH]c12
- cytotoxicity call (HSkMC): inactive
- cytotoxicity call (HepG2): inactive
- growth inhibition call (S. aureus RN4220): inactive

SMILES: C[C@@H]1CN([C@H](C)CO)C(=O)c2cc(NC(=O)Cc3ccccc3)ccc2O[C@H]1CN(C)Cc1ccc(-c2ccccc2)cc1
- cytotoxicity call (HSkMC): inactive
- cytotoxicity call (HepG2): active
- growth inhibition call (S. aureus RN4220): inactive

Reference: the antibiotic and cytotoxicity screens of Wong et al. (2023)
